Hit rate of the full screen: of about 310,000 compounds, about 14,000 (4.5%) showed an effect of 50% or more. The effect is printed as a negative number. The list shows a part of the results.
Target: human ether-à-go-go-related gene (hERG) potassium channel (human, UniProt Q12809)
Test: primary screen, population patch clamp on CHO cells stably expressing hERG
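Further: peak tail current of the secondary pulse compared with the same well before compound.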

Chain of human ether-à-go-go-related gene (hERG) potassium channel (Q12809 whole entry, looked up): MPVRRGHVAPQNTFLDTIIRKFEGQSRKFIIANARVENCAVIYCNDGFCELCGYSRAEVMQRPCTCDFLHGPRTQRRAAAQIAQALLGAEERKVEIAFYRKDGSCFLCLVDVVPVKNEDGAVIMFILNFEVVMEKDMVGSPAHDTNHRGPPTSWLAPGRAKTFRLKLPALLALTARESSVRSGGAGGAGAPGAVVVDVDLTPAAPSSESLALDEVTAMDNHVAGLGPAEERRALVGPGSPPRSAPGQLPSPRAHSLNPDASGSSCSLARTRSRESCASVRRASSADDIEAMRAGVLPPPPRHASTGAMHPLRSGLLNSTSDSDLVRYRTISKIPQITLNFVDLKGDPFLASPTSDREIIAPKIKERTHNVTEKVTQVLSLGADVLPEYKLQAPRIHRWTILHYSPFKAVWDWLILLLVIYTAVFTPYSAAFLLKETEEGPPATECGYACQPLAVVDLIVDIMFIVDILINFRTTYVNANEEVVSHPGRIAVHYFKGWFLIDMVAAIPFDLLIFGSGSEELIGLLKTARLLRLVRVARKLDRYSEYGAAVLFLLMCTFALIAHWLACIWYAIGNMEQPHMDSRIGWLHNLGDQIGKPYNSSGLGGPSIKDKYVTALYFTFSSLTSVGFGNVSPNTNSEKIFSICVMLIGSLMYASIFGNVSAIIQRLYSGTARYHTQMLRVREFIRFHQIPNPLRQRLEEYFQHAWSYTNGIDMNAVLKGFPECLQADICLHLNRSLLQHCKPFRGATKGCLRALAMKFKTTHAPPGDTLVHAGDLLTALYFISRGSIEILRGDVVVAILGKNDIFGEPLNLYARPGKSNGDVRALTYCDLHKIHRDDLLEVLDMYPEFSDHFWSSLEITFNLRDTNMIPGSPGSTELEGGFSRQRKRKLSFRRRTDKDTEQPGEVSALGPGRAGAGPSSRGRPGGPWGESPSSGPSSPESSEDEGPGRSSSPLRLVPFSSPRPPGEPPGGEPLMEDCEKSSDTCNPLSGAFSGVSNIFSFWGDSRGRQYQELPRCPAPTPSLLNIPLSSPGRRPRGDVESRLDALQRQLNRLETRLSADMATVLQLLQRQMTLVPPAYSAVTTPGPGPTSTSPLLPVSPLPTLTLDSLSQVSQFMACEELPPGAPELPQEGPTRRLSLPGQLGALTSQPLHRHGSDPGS

In order of falling “hERG current change (%, negative = inhibition) at 10uM” value:
1. COc1ccc(OC)c(-c2cnc(OC(C)(C)C)nc2OC(C)(C)C)c1  32.5%
2. CCCn1c(=O)c2ccccc2n2c(=S)[nH]nc12  26.2%
3. O=C(N/N=C/c1cccnc1)c1ccccc1Br  24.4%
4. O=C(c1cc2c(ccc3ccccc32)oc1=O)N1CCN(CCO)CC1  22%
5. COCCCNC(=O)C1CC(=O)N(Cc2ccc(OC)cc2)C1 (centres unmarked)  21.6%
6. O=C(Cc1ccc(-c2ccccc2)cc1)Nc1ccccc1  19.1%
7. O=C(Oc1ccccc1)N1CCOCC1  18%
8. COc1ccccc1/C=C/C=N/Nc1cccc(C(=O)O)c1  16.7%
9. Cc1nc([N+](=O)[O-])cn1CC(=O)c1ccc(Br)cc1  15.7%
10. COc1ccccc1NC(=O)CC1C(=O)Nc2ccccc2N1C(=O)c1ccccc1 (centres unmarked)  15.5%
11. O=C(COc1ccccc1[N+](=O)[O-])Nc1cccnc1  14.5%
12. O=C(NCCN1C(=O)S/C(=C/c2cccnc2)C1=O)C1CC(=O)N(Cc2ccccc2)C1 (centres unmarked)  14.4%
13. C/C(=N\NC(=O)c1cccc(S(=O)(=O)N2CCCC2)c1)c1ccco1  14.1%
14. COc1ccc(OC)c(NCc2nnc(-c3ccccc3)o2)c1  13.9%
15. O=C(O)CCCN1C(=O)/C(=C\C(Cl)=C\c2ccccc2)SC1=S  13.6%
16. Nc1cccc(Oc2ccc([N+](=O)[O-])cc2)c1  12.6%
17. CN(N)C(=S)Nc1ccc(Cl)cc1  12.3%
18. Cc1ccc(S(=O)(=O)NCCC(=O)NCc2ccccn2)cc1  11.1%
19. c1ccc(-c2nc(C3CCCCC3)c3ccccc3n2)cc1  10.7%
20. Cc1ccccc1Nc1ccc2nonc2c1[N+](=O)[O-]  10.7%
21. O=C(NCC1CCCO1)c1nnc(Cc2ccc(F)cc2)o1 (centres unmarked)  10.4%
22. CC(=O)Nc1ccc(S(=O)(=O)NCCS(=O)(=O)N2CCN(c3ccccc3F)CC2)cc1  10.2%
23. Cc1ccc(C)c(N2CCN(C(=O)Cc3c(C(=O)O)[nH]c4ccc(Cl)cc34)CC2)c1  10.1%
24. Cc1ccc(C(=O)NCCC(=O)N2CCCC2)cc1  9.95%
25. CC(=O)N1CC=CC1(C)C(=O)NCc1cc(F)cc(C(F)(F)F)c1 (centres unmarked)  9.74%
26. C/C(CCc1ccccc1)=N\NC(=O)c1ccc(CN2CCOCC2)cc1  8.55%
27. CCCCn1c(N)c(N(CC)C(=O)C2CCCC2)c(=O)[nH]c1=O  8.11%
28. COCCn1c(C)cc(C(=O)CSc2cc(C)c3ccc(OC)cc3n2)c1C  7.43%
29. CCN1C(=O)CC(C(=O)NCCc2ccc(S(N)(=O)=O)cc2)SC1=Nc1ccc(OC)cc1 (centres unmarked)  7.2%
30. COCC(C)NC(=O)COc1nncc2ccccc12 (centres unmarked)  5.65%
31. NC(=O)NC(=O)COC(=O)c1ccccc1OCc1ccc(F)cc1  5.58%
32. COc1ccccc1-c1nnc(NC(=O)CCS(=O)(=O)c2ccccc2)o1  5.3%
33. Cc1cccc(C(=O)NC(NCCc2ccccc2)C(Cl)(Cl)Cl)c1 (centres unmarked)  4.3%
34. CCOC(=O)c1sc(Nc2ccccc2Cl)nc1C.O=C(O)C(=O)O  2.81%
35. Cc1ccc(NC(=O)C2C(=O)N(C)c3ccccc32)cc1 (centres unmarked)  2.76%
36. COC(=O)Cc1cc(=O)[nH]c(/N=C(\N)Nc2ccc(C)cc2)n1  2.56%
37. CCN1CCN(c2ccc(N)c(C)c2)CC1  2.36%
38. O=S(=O)(NC(=NC1CCCC1)C(F)(F)F)c1ccccc1  2.25%
39. O=C1c2c(O)cc(O)cc2O[C@H](c2ccc(O)c(O)c2)[C@H]1O  1.86%
40. c1ccc(OCc2nn3c(-c4n[nH]c5c4CCC5)nnc3s2)cc1  1.77%
41. CCn1c(=O)n(CC)c2cc(N3CCCC3)c(NC(=O)c3ccc(OC)c(Br)c3)cc21  1.73%
42. O=C1CCc2cc(S(=O)(=O)NC3CCCCC3)cc3c2N1CC3  1.44%
43. CCCN1CCN(CCCNC(=O)CN2C(=O)c3cccnc3Oc3ccc(Cl)cc32)CC1  0.74%
44. CC(C)CC1(C(=O)NCCc2c[nH]c3ccccc23)C=CCN1C(=O)c1ccccc1 (centres unmarked)  0.564%
45. O=C1c2ccccc2C(=O)N1OCc1cccc(Cl)c1  0.197%
46. Nn1c(Cc2ccccc2F)nnc1SCC(=O)Nc1cccc(S(=O)(=O)NC2=NCCCCC2)c1  0.139%
47. COc1ccccc1C(=O)Nc1cc(Cl)ccc1-n1cncn1  0.114%
48. CCNc1nc(OC)nc(N(OC)S(=O)(=O)c2ccc(C)cc2)n1  0.0662%
49. CCCN(C(=O)c1ccc([N+](=O)[O-])c(C)c1)c1c(N)n(Cc2ccccc2)c(=O)[nH]c1=O  -0.221%
50. CCN(CC)S(=O)(=O)c1cccc(NC(=O)c2ccc(Sc3nncn3C)c([N+](=O)[O-])c2)c1  -1.36%
51. COc1cc(CC(=O)OCC(=O)NCCc2ccc(S(N)(=O)=O)cc2)cc(OC)c1OC  -2.43%
52. CCCCN1C(N)=NC[C@@H]1c1ccccc1  -2.61%
53. CCOC(=O)C1(Cc2ccccc2C(F)(F)F)CCN(Cc2ccon2)CC1  -2.88%
54. Cc1cc(C)cc(OC(=O)CS(=O)c2ccc(C(F)(F)F)cc2[N+](=O)[O-])c1 (centres unmarked)  -2.9%
55. COc1cc(NC(=O)c2nccnc2N)cc(C(=O)Nc2cccc(C(F)(F)F)c2)c1  -3.31%
56. CCOC(=O)c1cc(C#N)c(N)nc1C  -3.66%
57. COc1cc2c(cc1OC)C(C(=O)NCCC(C)C)C1CCCCN1C2=O (centres unmarked)  -4.23%
58. COc1ccc(CN(Cc2cccn2C)S(=O)(=O)c2ccc(C)cc2)cc1  -5.52%
59. CC(CC(=O)Nc1cccc(Cl)c1)c1ccccc1 (centres unmarked)  -6.32%
60. Cc1ccc2sc(NC(=O)CN3C(=O)CCC3=O)nc2c1C  -6.52%
61. O=C(COC(=O)c1ccc(O)cc1)NCc1ccc2c(c1)OCO2  -6.6%
62. O=C(O)CSCC(=O)Nc1cccc(C(F)(F)F)c1  -6.67%
63. C/C=C/c1ccc(OCCCCN2C(=O)NC(C)(C)C2=O)c(OC)c1  -7.09%
64. COc1ccc(Oc2coc3c(CN4CCOCC4)c(O)ccc3c2=O)cc1  -7.19%
65. COc1ccc([N+](=O)[O-])cc1NC(=O)C(C)OC(=O)c1ccccn1 (centres unmarked)  -7.61%
66. Cc1cccc(Oc2ncnc(N)c2[N+](=O)[O-])c1  -8.79%
67. COC(=O)Cn1c(=O)c2c(nc3n2CC(C)CN3c2ccc(C)c(C)c2)n(C)c1=O (centres unmarked)  -8.82%
68. CCCn1c(=O)c2ccccc2n2c(SCc3nc4ccccc4s3)nnc12  -9.05%
69. CC1CCN(C(=S)NC2CCCCC2)CC1  -9.81%
70. COc1cc(SC)ccc1C(=O)NC1CCCCC1  -10.4%
71. CC(C)[C@H](NC(=O)c1ccco1)C(=O)OCC(=O)Nc1ccc(F)cc1  -10.6%
72. CCCN1CCN(S(=O)(=O)c2ccc3c(c2)CCC(=O)N3)CC1  -11.2%
73. Cc1ccc(S(=O)(=O)c2nc(-c3ccco3)oc2N2CCC(C)CC2)cc1  -11.7%
74. Cc1sc2nc(CSCC(=O)NC3CCCCC3)[nH]c(=O)c2c1C  -12.7%
75. CSc1nnc(-c2cc3c(-c4ccccc4)nn(C)c3s2)n1C  -17.1%
76. O=C(NC1CC(=O)N(c2ccc(Cl)cc2)C1)C1CC1 (centres unmarked)  -18.2%
77. CC(C)c1ccc(CN(C(=O)c2ccco2)C2CCS(=O)(=O)C2)cc1 (centres unmarked)  -20.2%
78. Cc1cccc(C)c1N1C(=O)CC(N2CCSCC2)C1=O (centres unmarked)  -25.6%
79. Cc1cccc(C)c1NC(=O)C(=O)NCCOc1ccc(Cl)cc1  -26%
80. COc1ccccc1N1CCN(C(=O)c2cc(-c3ccco3)on2)CC1  -26.3%
81. Cc1[nH]cnc1CSCc1ccc(F)cc1.Cl  -28.5%
82. CCC(CC)NCC(O)COc1ccc(Br)cc1.O=C(O)C(=O)O (centres unmarked)  -30.5%
83. COc1c(C)cc(C(=O)C2CCCN(C(=O)c3cc4nc(C)cc(C)n4n3)C2)cc1C (centres unmarked)  -30.8%
84. O=C1COc2ccc(C(=O)COC(=O)c3ccc(S(=O)(=O)C(F)F)cc3)cc2N1  -40.6%
85. CCn1c(SCC(=O)Nc2cccc(S(=O)(=O)N(C)c3ccccc3)c2)nnc1C1CC1  -44.1%
86. COc1ccc(-n2nnnc2CNC(=O)c2ccc3ccccc3c2)cc1  -45.3%
87. CCOC(=O)N1CCC(N2CCN(S(=O)(=O)c3ccc(Cl)cc3)CC2)CC1.O=C(O)C(=O)O  -45.7%
88. CCO[C@H]1OC(C(=O)Nc2ccccc2)=C[C@@H](c2cn(C(C)=O)c3ccccc23)[C@@H]1CCCO  -62.5%
89. Cn1nc(C(F)(F)F)c(-c2ccc(Br)cc2)c1NC(=O)c1ccco1  -63.5%

Source: PMC4336329 (PLoS ONE, 2015)
